Results: the supplement of paper PMC8728848
Some of the results follow.

Tests used:
Assay in all cases: glycan array binding signal (z-score within array); higher = stronger binding
Details in all cases: glycan notation: IUPAC condensed, linker removed
[1] = target: GlcNAc(b1-3)Gal(b1-4)Glc
Summary of the method: (§1)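 Columns mapping to the same glycan were averaged after glycan names were converted to IUPAC-condensed notation. The data come from 3228 arrays in the Consortium for Functional Glycomics database, limited to those with an available protein sequence. Binding is reported as a within-array Z-score averaged across arrays of one protein sequence and across linkers.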

[2] = target: GlcNAc(b1-3)Gal(b1-4)GlcNAc
Summary of the method: as §1

[3] = target: GlcNAc(b1-3)Gal(b1-4)GlcNAc(b1-3)Gal(b1-4)GlcNAc
Summary of the method: as §1

[4] = target: GlcNAc(b1-3)GalNAc
Summary of the method: as §1

[5] = target: GlcNAc(b1-3)Man
Summary of the method: as §1

[6] = target: GlcNAc(b1-3)[GlcNAc(b1-4)][GlcNAc(b1-6)]GlcNAc
Summary of the method: as §1

[7] = target: GlcNAc(b1-3)[GlcNAc(b1-6)]Gal(b1-4)GlcNAc
Summary of the method: as §1

[8] = target: GlcNAc(b1-3)[GlcNAc(b1-6)]GalNAc
Summary of the method: as §1

[9] = target: GlcNAc(b1-4)Gal(b1-4)GlcNAc
Summary of the method: as §1

[10] = target: GlcNAc(b1-4)GlcNAc
Summary of the method: as §1

[11] = target: GlcNAc(b1-4)GlcNAc(b1-4)GlcNAc
Summary of the method: as §1

[12] = target: GlcNAc(b1-4)GlcNAc(b1-4)GlcNAc(b1-4)GlcNAc(b1-4)GlcNAc
Summary of the method: as §1

[13] = target: GlcNAc(b1-4)GlcNAc(b1-4)GlcNAc(b1-4)GlcNAc(b1-4)GlcNAc(b1-4)GlcNAc
Summary of the method: as §1

[14] = target: GlcNAc(b1-4)[GlcNAc(b1-6)]GalNAc
Summary of the method: as §1

[15] = target: GlcNAc(b1-6)Gal(b1-4)GlcNAc
Summary of the method: as §1

[16] = target: GlcNAc(b1-6)GalNAc
Summary of the method: as §1

[17] = target: GlcNAc3Prop(b1-4)GlcNAc
Summary of the method: as §1

[18] = target: GlcNAc6S(b1-3)Gal(b1-4)GlcNAc
Summary of the method: as §1

[19] = target: Kdn(a2-3)Gal(b1-3)GalNAc
Summary of the method: as §1

[20] = target: Kdn(a2-3)Gal(b1-3)GlcNAc
Summary of the method: as §1

[21] = target: Kdn(a2-3)Gal(b1-4)Glc
Summary of the method: as §1

[22] = target: Kdn(a2-3)Gal(b1-4)GlcNAc
Summary of the method: as §1

[23] = target: Kdn(a2-3)Gal(b1-4)[Fuc(a1-3)]GlcNAc
Summary of the method: as §1

[24] = target: Kdn(a2-6)Gal(b1-4)GlcNAc
Summary of the method: as §1

[25] = target: Man(a1-2)Man(a1-2)Man(a1-3)Man
Summary of the method: as §1

[26] = target: Man(a1-2)Man(a1-2)Man(a1-6)[Man(a1-3)]Man
Summary of the method: as §1

[27] = target: Man(a1-2)Man(a1-3)Man
Summary of the method: as §1

[28] = target: Man(a1-2)Man(a1-3)[Man(a1-2)Man(a1-6)]Man
Summary of the method: as §1

[29] = target: Man(a1-2)Man(a1-3)[Man(a1-2)Man(a1-6)]Man(a1-6)[Man(a1-2)Man(a1-2)Man(a1-3)]Man
Summary of the method: as §1

[30] = target: Man(a1-2)Man(a1-3)[Man(a1-2)Man(a1-6)]Man(a1-6)[Man(a1-2)Man(a1-2)Man(a1-3)]Man(b1-4)GlcNAc(b1-4)GlcNAc
Summary of the method: as §1

[31] = target: Man(a1-2)Man(a1-3)[Man(a1-6)]Man(a1-6)[Man(a1-2)Man(a1-3)]Man(b1-4)GlcNAc(b1-4)GlcNAc
Summary of the method: as §1

[32] = target: Man(a1-2)Man(a1-6)[Man(a1-3)]Man(a1-6)[Man(a1-2)Man(a1-2)Man(a1-3)]Man
Summary of the method: as §1

[33] = target: Man(a1-2)Man(a1-6)[Man(a1-3)]Man(a1-6)[Man(a1-2)Man(a1-2)Man(a1-3)]Man(b1-4)GlcNAc(b1-4)GlcNAc
Summary of the method: as §1

[34] = target: Man(a1-3)[Man(a1-6)]Man
Summary of the method: as §1

[35] = target: Man(a1-3)[Man(a1-6)]Man(a1-6)[Man(a1-2)Man(a1-3)]Man(b1-4)GlcNAc(b1-4)GlcNAc
Summary of the method: as §1

[36] = target: Man(a1-3)[Man(a1-6)]Man(a1-6)[Man(a1-3)]Man
Summary of the method: as §1

[37] = target: Man(a1-3)[Man(a1-6)]Man(a1-6)[Man(a1-3)]Man(b1-4)GlcNAc(b1-4)GlcNAc
Summary of the method: as §1

[38] = target: Man(a1-3)[Man(a1-6)]Man(b1-4)GlcNAc(b1-4)GlcNAc
Summary of the method: as §1

[39] = target: Man(a1-6)Man
Summary of the method: as §1

[40] = target: Man(b1-4)GlcNAc
Summary of the method: as §1

[41] = target: Neu5Ac(a2-3)Gal
Summary of the method: as §1

[42] = target: Neu5Ac(a2-3)Gal(b1-3)GalNAc
Summary of the method: as §1

[43] = target: Neu5Ac(a2-3)Gal(b1-3)GalNAc(b1-3)Gal(a1-4)Gal(b1-4)Glc
Summary of the method: as §1

[44] = target: Neu5Ac(a2-3)Gal(b1-3)GalNAc(b1-4)[Neu5Ac(a2-3)]Gal(b1-4)Glc
Summary of the method: as §1

[45] = target: Neu5Ac(a2-3)Gal(b1-3)GalNAc(b1-4)[Neu5Ac(a2-8)Neu5Ac(a2-3)]Gal(b1-4)Glc
Summary of the method: as §1

[46] = target: Neu5Ac(a2-3)Gal(b1-3)GalNAc6S
Summary of the method: as §1

[47] = target: Neu5Ac(a2-3)Gal(b1-3)GlcNAc
Summary of the method: as §1

[48] = target: Neu5Ac(a2-3)Gal(b1-3)GlcNAc(b1-3)Gal(b1-3)GlcNAc
Summary of the method: as §1

[49] = target: Neu5Ac(a2-3)Gal(b1-3)GlcNAc(b1-3)Gal(b1-4)GlcNAc
Summary of the method: as §1

[50] = target: Neu5Ac(a2-3)Gal(b1-3)GlcNAc(b1-3)GalNAc
Summary of the method: as §1

[51] = target: Neu5Ac(a2-3)Gal(b1-3)GlcNAc6S
Summary of the method: as §1

[52] = target: Neu5Ac(a2-3)Gal(b1-3)[Fuc(a1-4)]GlcNAc
Summary of the method: as §1

[53] = target: Neu5Ac(a2-3)Gal(b1-3)[Fuc(a1-4)]GlcNAc(b1-3)Gal(b1-3)[Fuc(a1-4)]GlcNAc
Summary of the method: as §1

[54] = target: Neu5Ac(a2-3)Gal(b1-3)[Fuc(a1-4)]GlcNAc(b1-3)Gal(b1-4)[Fuc(a1-3)]GlcNAc
Summary of the method: as §1

[55] = target: Neu5Ac(a2-3)Gal(b1-3)[Neu5Ac(a2-3)Gal(b1-4)]GlcNAc
Summary of the method: as §1

[56] = target: Neu5Ac(a2-3)Gal(b1-3)[Neu5Ac(a2-6)]GalNAc
Summary of the method: as §1

[57] = target: Neu5Ac(a2-3)Gal(b1-4)Glc
Summary of the method: as §1

[58] = target: Neu5Ac(a2-3)Gal(b1-4)GlcNAc
Summary of the method: as §1

[59] = target: Neu5Ac(a2-3)Gal(b1-4)GlcNAc(b1-2)Man(a1-3)[GlcNAc(b1-2)Man(b1-4)GlcNAc(b1-2)Man(a1-6)]Man(b1-4)GlcNAc(b1-4)GlcNAc
Summary of the method: as §1

[60] = target: Neu5Ac(a2-3)Gal(b1-4)GlcNAc(b1-2)Man(a1-3)[Neu5Ac(a2-6)Gal(b1-4)GlcNAc(b1-2)Man(a1-6)]Man(b1-4)GlcNAc(b1-4)GlcNAc
Summary of the method: as §1

[61] = target: Neu5Ac(a2-3)Gal(b1-4)GlcNAc(b1-3)Gal
Summary of the method: as §1

[62] = target: Neu5Ac(a2-3)Gal(b1-4)GlcNAc(b1-3)Gal(b1-3)GlcNAc
Summary of the method: as §1

[63] = target: Neu5Ac(a2-3)Gal(b1-4)GlcNAc(b1-3)Gal(b1-4)GlcNAc
Summary of the method: as §1

[64] = target: Neu5Ac(a2-3)Gal(b1-4)GlcNAc(b1-3)Gal(b1-4)GlcNAc(b1-3)Gal(b1-4)GlcNAc
Summary of the method: as §1

[65] = target: Neu5Ac(a2-3)Gal(b1-4)GlcNAc(b1-3)Gal(b1-4)[Fuc(a1-3)]GlcNAc
Summary of the method: as §1

B1: XCL (Xerocomus chrysenteron) (protein)
chain: MSYSITLRVYQTNRDRGYFSIVEKTVWHFANGGTWSEANGAHTLTQGGSGTSGVLRFLSTKGERITVAVGVHNYKRWCDVVTGLKPDETALVINPQYYNNGGRDYVREKQLAEYSVTSAIGTKVEVVYTVAEGNNLEANVIFS
glycan array binding signal (z-score) [1]: 0.236
glycan array binding signal (z-score) [2]: 0.773
glycan array binding signal (z-score) [3]: 0.789
glycan array binding signal (z-score) [4]: 0.729
glycan array binding signal (z-score) [5]: 0.636
glycan array binding signal (z-score) [6]: 0.592
glycan array binding signal (z-score) [7]: 1.7
glycan array binding signal (z-score) [8]: 0.896
glycan array binding signal (z-score) [9]: -0.303
glycan array binding signal (z-score) [10]: 0.609
glycan array binding signal (z-score) [11]: 2.02
glycan array binding signal (z-score) [12]: 0.753
glycan array binding signal (z-score) [13]: 0.459
glycan array binding signal (z-score) [14]: 0.421
glycan array binding signal (z-score) [15]: 1.01
glycan array binding signal (z-score) [16]: 0.023
glycan array binding signal (z-score) [17]: -0.323
glycan array binding signal (z-score) [18]: -0.325
glycan array binding signal (z-score) [19]: 0.964
glycan array binding signal (z-score) [20]: -0.322
glycan array binding signal (z-score) [21]: -0.294
glycan array binding signal (z-score) [22]: -0.313
glycan array binding signal (z-score) [23]: -0.242
glycan array binding signal (z-score) [24]: -0.327
glycan array binding signal (z-score) [25]: -0.322
glycan array binding signal (z-score) [26]: -0.307
glycan array binding signal (z-score) [27]: -0.315
glycan array binding signal (z-score) [28]: -0.323
glycan array binding signal (z-score) [29]: -0.325
glycan array binding signal (z-score) [30]: -0.321
glycan array binding signal (z-score) [31]: -0.27
glycan array binding signal (z-score) [32]: -0.322
glycan array binding signal (z-score) [33]: -0.305
glycan array binding signal (z-score) [34]: -0.318
glycan array binding signal (z-score) [35]: -0.325
glycan array binding signal (z-score) [36]: -0.331
glycan array binding signal (z-score) [37]: -0.315
glycan array binding signal (z-score) [38]: -0.204
glycan array binding signal (z-score) [39]: -0.32
glycan array binding signal (z-score) [40]: -0.321
glycan array binding signal (z-score) [41]: -0.321
glycan array binding signal (z-score) [42]: 1.97
glycan array binding signal (z-score) [43]: -0.308
glycan array binding signal (z-score) [44]: -0.32
glycan array binding signal (z-score) [45]: -0.311
glycan array binding signal (z-score) [46]: 3.87
glycan array binding signal (z-score) [47]: -0.308
glycan array binding signal (z-score) [48]: -0.327
glycan array binding signal (z-score) [49]: -0.267
glycan array binding signal (z-score) [50]: -0.266
glycan array binding signal (z-score) [51]: -0.314
glycan array binding signal (z-score) [52]: -0.324
glycan array binding signal (z-score) [53]: -0.24
glycan array binding signal (z-score) [54]: -0.271
glycan array binding signal (z-score) [55]: -0.317
glycan array binding signal (z-score) [56]: 1.25
glycan array binding signal (z-score) [57]: -0.308
glycan array binding signal (z-score) [58]: -0.303
glycan array binding signal (z-score) [59]: -0.323
glycan array binding signal (z-score) [60]: -0.32
glycan array binding signal (z-score) [61]: -0.214
glycan array binding signal (z-score) [62]: -0.312
glycan array binding signal (z-score) [63]: -0.318
glycan array binding signal (z-score) [64]: -0.329
glycan array binding signal (z-score) [65]: -0.317
